Experimental data published in the supplement of paper PMC10126150.
Sequences with one replicate were seen in a single cluster, so their values are uncertain.

Test system: ATP
Test: switch fluorescence ratio, 500 uM ATP over buffer (Cy3 cluster intensity, sum of 5 cycles each) (fold (ratio)); higher = stronger signal-on switching upon ATP binding; sequences stand for … in TCGTCGGCAGCGTCAGATGTGTATAAGAGACAGTTTTTTTTTTTTTTTTTTTTTTTTT…TC
Details: aptamer strand: ATP DNA aptamer (quencher-CACCTGGGGGAGTATTGCGGAGGAAGG + anchor), 100 nM annealed; ATP concentration: 500 uM; one replicate
How it was run: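 Imaging in selection buffer was followed by imaging after 15 min with 500 uM ATP at 22 °C, for Cy3-labelled switching-strand clusters annealed to 100 nM quencher-labelled ATP aptamer on a modified Illumina MiSeq flow-cell. Five of these buffer/ATP cycles ran, separated by NaOH stripping and re-annealing. The fluorescence ratio per cluster is summed target-cycle over summed buffer-cycle Cy3 intensity, averaged per switch-domain sequence; clusters outside 100-1000 RFU were removed.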
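Further: ATP exposure 15 min at 22 °C before imaging.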

Which switch fluorescence ratio does the source give for ATGGCAAAGG here?
The switch fluorescence ratio was 1.03.

How did the switch fluorescence ratio turn out when ATGGCGGAGC was run?
Its switch fluorescence ratio is 1.03.

ATGGCGGGT was tested. Which switch fluorescence ratio did it give?
Its switch fluorescence ratio is 0.994.

How did the switch fluorescence ratio turn out when ATGGCGTGTA was run?
Its switch fluorescence ratio is 1.02.

ATGGCTGAGC was tested. Which switch fluorescence ratio did it give?
Its switch fluorescence ratio is 1.46.

With ATGGCTTTGG as the sequence, how does the switch fluorescence ratio read?
Its switch fluorescence ratio is 0.951.

ATGGGAAGTT was tested. Which switch fluorescence ratio did it give?
Its switch fluorescence ratio is 0.954.

ATGGGACTAT was tested. Which switch fluorescence ratio did it give?
Its switch fluorescence ratio is 0.991.

ATGGGATACG was tested. Which switch fluorescence ratio did it give?
Its switch fluorescence ratio is 1.01.

ATGGGCTCTC was tested. Which switch fluorescence ratio did it give?
The switch fluorescence ratio was 0.994.

ATGGGCTT was tested. Which switch fluorescence ratio did it give?
Its switch fluorescence ratio is 1.

For ATGGGGAGAC, which switch fluorescence ratio is on record?
The switch fluorescence ratio was 1.01.

How did the switch fluorescence ratio turn out when ATGGGGCG was run?
Its switch fluorescence ratio is 1.03.

With ATGGGGTGAG as the sequence, how does the switch fluorescence ratio read?
The switch fluorescence ratio was 0.986.

Which switch fluorescence ratio does the source give for ATGGGTAAAA here?
The switch fluorescence ratio was 1.03.

Which switch fluorescence ratio does the source give for ATGGGTGAGC here?
Its switch fluorescence ratio is 0.981.

For ATGGTAAGTG, which switch fluorescence ratio is on record?
Its switch fluorescence ratio is 0.928.

How did the switch fluorescence ratio turn out when ATGGTAATAC was run?
The switch fluorescence ratio was 1.61.

Which switch fluorescence ratio does the source give for ATGGTAGTCT here?
The switch fluorescence ratio was 1.03.

For ATGGTATTCC, which switch fluorescence ratio is on record?
The switch fluorescence ratio was 0.996.

For ATGGTATTGC, which switch fluorescence ratio is on record?
The switch fluorescence ratio was 1.04.

For ATGGTCATCA, which switch fluorescence ratio is on record?
The switch fluorescence ratio was 0.987.

How did the switch fluorescence ratio turn out when ATGGTCATCT was run?
Its switch fluorescence ratio is 0.999.

Which switch fluorescence ratio does the source give for ATGGTCTAGG here?
The switch fluorescence ratio was 0.972.

How did the switch fluorescence ratio turn out when ATGGTGACAG was run?
The switch fluorescence ratio was 0.97.

How did the switch fluorescence ratio turn out when ATGGTGGTTC was run?
The switch fluorescence ratio was 1.01.

With ATGGTTAGG as the sequence, how does the switch fluorescence ratio read?
Its switch fluorescence ratio is 0.953.

For ATGGTTTAAA, which switch fluorescence ratio is on record?
The switch fluorescence ratio was 0.97.

For ATGTACTGCC, which switch fluorescence ratio is on record?
The switch fluorescence ratio was 1.06.

ATGTACTTA was tested. Which switch fluorescence ratio did it give?
The switch fluorescence ratio was 1.12.

For ATGTATAAGC, which switch fluorescence ratio is on record?
Its switch fluorescence ratio is 0.997.

ATGTATGTAG was tested. Which switch fluorescence ratio did it give?
The switch fluorescence ratio was 0.994.

ATGTATTAGT was tested. Which switch fluorescence ratio did it give?
The switch fluorescence ratio was 1.01.

With ATGTCAAGCT as the sequence, how does the switch fluorescence ratio read?
Its switch fluorescence ratio is 1.03.

Which switch fluorescence ratio does the source give for ATGTCAAGTA here?
The switch fluorescence ratio was 0.996.

With ATGTCACATA as the sequence, how does the switch fluorescence ratio read?
Its switch fluorescence ratio is 0.979.

With ATGTCAGTGG as the sequence, how does the switch fluorescence ratio read?
The switch fluorescence ratio was 0.945.

For ATGTCAGTTT, which switch fluorescence ratio is on record?
Its switch fluorescence ratio is 1.01.

With ATGTCCAAT as the sequence, how does the switch fluorescence ratio read?
The switch fluorescence ratio was 0.995.

With ATGTCCAGTC as the sequence, how does the switch fluorescence ratio read?
The switch fluorescence ratio was 1.02.

With ATGTCCGCTT as the sequence, how does the switch fluorescence ratio read?
The switch fluorescence ratio was 1.16.

With ATGTCCTCAT as the sequence, how does the switch fluorescence ratio read?
Its switch fluorescence ratio is 0.943.

For ATGTCGACGG, which switch fluorescence ratio is on record?
The switch fluorescence ratio was 1.03.

ATGTCGACGT was tested. Which switch fluorescence ratio did it give?
Its switch fluorescence ratio is 1.07.

For ATGTCGC, which switch fluorescence ratio is on record?
Its switch fluorescence ratio is 0.949.

ATGTCGGAGA was tested. Which switch fluorescence ratio did it give?
The switch fluorescence ratio was 1.01.

Which switch fluorescence ratio does the source give for ATGTCTATCG here?
The switch fluorescence ratio was 0.996.

How did the switch fluorescence ratio turn out when ATGTCTCTCC was run?
Its switch fluorescence ratio is 1.04.

ATGTCTTTCT was tested. Which switch fluorescence ratio did it give?
Its switch fluorescence ratio is 1.04.

Which switch fluorescence ratio does the source give for ATGTGAAAAT here?
The switch fluorescence ratio was 1.02.

How did the switch fluorescence ratio turn out when ATGTGAACTT was run?
Its switch fluorescence ratio is 1.04.

Which switch fluorescence ratio does the source give for ATGTGACGGG here?
The switch fluorescence ratio was 1.01.

ATGTGATAG was tested. Which switch fluorescence ratio did it give?
Its switch fluorescence ratio is 1.03.

With ATGTGCCGTG as the sequence, how does the switch fluorescence ratio read?
Its switch fluorescence ratio is 1.03.

ATGTGCGCTG was tested. Which switch fluorescence ratio did it give?
The switch fluorescence ratio was 0.997.

Which switch fluorescence ratio does the source give for ATGTGCGTAT here?
Its switch fluorescence ratio is 0.975.

With ATGTGGGCGA as the sequence, how does the switch fluorescence ratio read?
The switch fluorescence ratio was 0.966.

ATGTGGGTCG was tested. Which switch fluorescence ratio did it give?
Its switch fluorescence ratio is 1.25.

Which switch fluorescence ratio does the source give for ATGTGTACAC here?
The switch fluorescence ratio was 1.02.

ATGTGTTTCC was tested. Which switch fluorescence ratio did it give?
The switch fluorescence ratio was 1.06.

With ATGTTAAACA as the sequence, how does the switch fluorescence ratio read?
The switch fluorescence ratio was 1.03.

ATGTTAACCA was tested. Which switch fluorescence ratio did it give?
Its switch fluorescence ratio is 1.04.

For ATGTTAAGGC, which switch fluorescence ratio is on record?
The switch fluorescence ratio was 0.961.

ATGTTAATAT was tested. Which switch fluorescence ratio did it give?
The switch fluorescence ratio was 0.986.

How did the switch fluorescence ratio turn out when ATGTTACTCC was run?
The switch fluorescence ratio was 1.21.

With ATGTTAGAAT as the sequence, how does the switch fluorescence ratio read?
Its switch fluorescence ratio is 1.04.

With ATGTTCAAGT as the sequence, how does the switch fluorescence ratio read?
Its switch fluorescence ratio is 0.985.

Which switch fluorescence ratio does the source give for ATGTTCAGTA here?
The switch fluorescence ratio was 0.991.

Which switch fluorescence ratio does the source give for ATGTTCTAGC here?
Its switch fluorescence ratio is 1.03.

ATGTTGATG was tested. Which switch fluorescence ratio did it give?
The switch fluorescence ratio was 0.991.

ATGTTGCGAC was tested. Which switch fluorescence ratio did it give?
The switch fluorescence ratio was 1.05.

For ATGTTGTCAA, which switch fluorescence ratio is on record?
Its switch fluorescence ratio is 0.997.

How did the switch fluorescence ratio turn out when ATTAAACCTA was run?
Its switch fluorescence ratio is 1.06.

ATTAAACTCG was tested. Which switch fluorescence ratio did it give?
Its switch fluorescence ratio is 0.909.

Which switch fluorescence ratio does the source give for ATTAACCCCG here?
Its switch fluorescence ratio is 1.04.

ATTAACTCA was tested. Which switch fluorescence ratio did it give?
The switch fluorescence ratio was 1.03.

For ATTAACTCGG, which switch fluorescence ratio is on record?
Its switch fluorescence ratio is 1.01.

With ATTAAGGCAT as the sequence, how does the switch fluorescence ratio read?
Its switch fluorescence ratio is 1.02.

How did the switch fluorescence ratio turn out when ATTAAGGCTT was run?
Its switch fluorescence ratio is 1.03.

Which switch fluorescence ratio does the source give for ATTAATTAC here?
The switch fluorescence ratio was 1.03.

ATTACAAGAA was tested. Which switch fluorescence ratio did it give?
The switch fluorescence ratio was 1.02.

For ATTACAGTCT, which switch fluorescence ratio is on record?
The switch fluorescence ratio was 1.02.

With ATTACCGCCA as the sequence, how does the switch fluorescence ratio read?
Its switch fluorescence ratio is 1.36.

How did the switch fluorescence ratio turn out when ATTACCTGGG was run?
The switch fluorescence ratio was 0.986.

ATTACGAATA was tested. Which switch fluorescence ratio did it give?
The switch fluorescence ratio was 1.07.

For ATTACGTAGG, which switch fluorescence ratio is on record?
The switch fluorescence ratio was 1.03.

With ATTACTCGAC as the sequence, how does the switch fluorescence ratio read?
Its switch fluorescence ratio is 1.32.

How did the switch fluorescence ratio turn out when ATTACTTG was run?
The switch fluorescence ratio was 0.98.

With ATTAGAGGAG as the sequence, how does the switch fluorescence ratio read?
Its switch fluorescence ratio is 1.03.

For ATTAGCCTAG, which switch fluorescence ratio is on record?
The switch fluorescence ratio was 1.01.

Which switch fluorescence ratio does the source give for ATTAGGACAG here?
The switch fluorescence ratio was 1.01.

For ATTAGGCTA, which switch fluorescence ratio is on record?
The switch fluorescence ratio was 1.02.

For ATTAGGGTAG, which switch fluorescence ratio is on record?
The switch fluorescence ratio was 0.967.

Which switch fluorescence ratio does the source give for ATTAGGTCGA here?
The switch fluorescence ratio was 0.983.

Which switch fluorescence ratio does the source give for ATTAGTAGAG here?
The switch fluorescence ratio was 1.03.

How did the switch fluorescence ratio turn out when ATTAGTAGC was run?
The switch fluorescence ratio was 0.995.

How did the switch fluorescence ratio turn out when ATTAGTCCTA was run?
Its switch fluorescence ratio is 1.02.

Which switch fluorescence ratio does the source give for ATTAGTCTGT here?
The switch fluorescence ratio was 0.99.

Which switch fluorescence ratio does the source give for ATTAGTGGTA here?
Its switch fluorescence ratio is 1.01.

With ATTATCGCTC as the sequence, how does the switch fluorescence ratio read?
Its switch fluorescence ratio is 1.45.
